Data taken from the supplement of paper PMC7125110.
± gives the standard error. This sample is rich in variants without activity.

B1: glmS ribozyme (parent)
chain: AUAAAAGCGCCAGAACUACAGAAAUGUAGUUGACGAGGAGGAGGUUUAUCGAAUUUUCGGCGGAUGCCUCCAAA

Tests used:
Details in all cases: with glucosamine-6-phosphate
glucosamine-6-phosphate [1] = variants of: B1; assay: self-cleavage kobs at 160 uM GlcN6P; higher = faster cleavage; RNA array
In short: (§1)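 E. coli RNA polymerase transcribed barcoded ribozyme variants in situ on sequenced MiSeq chips, which were tracked via a hybridised Cy3 probe at 37 °C. Tiles were imaged over ~14 h after glucosamine-6-phosphate (40 μM to 10 mM) in HEPES/KCl/Mg(OAc)2 buffer was flowed in. Normalised per-tile medians were fit to one- or two-exponential decays for kobs, and kcat and KM came from weighted Michaelis–Menten fits.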

glucosamine-6-phosphate [2] = variants of: B1; assay: self-cleavage kobs at 2500 uM GlcN6P; higher = faster cleavage; RNA array
In short: as §1

glucosamine-6-phosphate [3] = variants of: B1; assay: self-cleavage kobs at 10000 uM GlcN6P; higher = faster cleavage; RNA array
In short: as §1

glucosamine-6-phosphate [4] = variants of: B1; assay: self-cleavage kobs at 640 uM GlcN6P; higher = faster cleavage; RNA array
In short: as §1

Row | Variant | self-cleavage kobs at 160 uM GlcN6P (glucosamine-6-phosphate [1]) [s⁻¹] | self-cleavage kobs at 2500 uM GlcN6P (glucosamine-6-phosphate [2]) [s⁻¹] | self-cleavage kobs at 10000 uM GlcN6P (glucosamine-6-phosphate [3]) [s⁻¹] | self-cleavage kobs at 640 uM GlcN6P (glucosamine-6-phosphate [4]) [s⁻¹]
1 | G9C A12G | < 1e-05 | < 1e-05 | < 1e-05 | 
2 | G32U A48G C68U | < 1e-05 | < 1e-05 |  | 
3 | C67U C70U | 4.68e-05 ± 6.2e-06 | 0.000264 ± 2e-05 | 0.000377 ± 3e-05 | 0.000132 ± 9.5e-06
4 | C11A G38C U47G U55C | < 1e-05 | < 1e-05 |  | 
5 | A6G G32C A48U A64G | < 1e-05 | < 1e-05 |  | 
6 | C11A C34G G66A | < 1e-05 |  |  | 
7 | G7A U30A U45A C70A | < 1e-05 | < 1e-05 |  | 
8 | A14U G29C G40U | < 1e-05 | < 1e-05 |  | 
9 | A14G A42U G51U C70G | < 1e-05 |  |  | 
10 | A33G G40U G44U A52U | < 1e-05 |  |  | 
11 | C10U A12C U31G A42G | < 1e-05 |  |  | 
12 | U65A C70G | 5.95e-05 ± 1.2e-05 | 7.95e-05 ± 1e-05 | 7.32e-05 ± 7.6e-06 | 7.89e-05 ± 1e-05
13 | C8U A33G C34G A36U U65C | < 1e-05 | < 1e-05 |  | 
14 | C11G A33G G37C G44U U56C | < 1e-05 | < 1e-05 |  | 
15 | A6U C10A G35U G38U A52C | < 1e-05 | < 1e-05 |  | 
16 | C16A A48G A52G A53G U57C | < 1e-05 |  |  | 
17 | G7C A15U C34A A36G | < 1e-05 |  |  | 
18 | A15C A52C C71U | < 1e-05 |  |  | 
19 | A33G A42G C71U | < 1e-05 | < 1e-05 |  | 
20 | G32C U54C | < 1e-05 |  |  | 
21 | C16G G41U U54A | < 1e-05 |  |  | 
22 | A15G G44U C71G | < 1e-05 | < 1e-05 |  | 
23 | G7A A39U G51A | < 1e-05 |  |  | 

Row | Variant | self-cleavage kobs at 160 uM GlcN6P (glucosamine-6-phosphate [1]) [s⁻¹] | self-cleavage kobs at 2500 uM GlcN6P (glucosamine-6-phosphate [2]) [s⁻¹] | self-cleavage kobs at 10000 uM GlcN6P (glucosamine-6-phosphate [3]) [s⁻¹] | self-cleavage kobs at 640 uM GlcN6P (glucosamine-6-phosphate [4]) [s⁻¹]
24 | C16G A33C C58G G66A | < 1e-05 | < 1e-05 |  | 
25 | A33C G41U C71G | < 1e-05 |  |  | 
26 | A14G G35U G40A | < 1e-05 |  |  | 
27 | A12G G40U G62A | < 1e-05 |  |  | 
28 | A6U U47C C68U | < 1e-05 |  |  | 
29 | A6G G13A A39U A42C | < 1e-05 |  |  | 
30 | A15C A48G G63U A64C | < 1e-05 |  |  | 
31 | G29U A42C C71U | < 1e-05 | < 1e-05 |  | 
32 | A15U A52U C58A C70U | < 1e-05 |  |  | 
33 | C61U U69A | 3.86e-05 ± 1.8e-05 | 6.76e-05 ± 1.9e-05 |  | 4.2e-05 ± 1.3e-05
34 | U30C U54G C68A | 0.000132 ± 4.9e-05 |  |  | 
35 | G9A C50U G51U A52U | < 1e-05 |  |  | 
36 | U30G C58G A64C C67G C71G | 5.89e-05 ± 2e-05 |  |  | 
37 | G9A A53G | < 1e-05 |  | 3.28e-05 ± 1.3e-05 | 
38 | G13C A39C A53C | < 1e-05 |  |  | 
39 | G9C A14G G59U | < 1e-05 |  |  | 
40 | G9C C11G C61G G63U | < 1e-05 | < 1e-05 |  | 
41 | U30C U31C G38A | < 1e-05 | < 1e-05 |  | 
42 | C61G U69C C70G | 5.95e-05 ± 2.1e-05 | 8.71e-05 ± 4.1e-05 |  | 6.36e-05 ± 2.5e-05
43 | C8G G38A A52G | < 1e-05 | < 1e-05 |  | 
44 | A6G A15C U45A G59A | < 1e-05 |  |  | 
45 | A14G C16U C34A G41A A52C | < 1e-05 | < 1e-05 |  | 
46 | G7C G41A G62U | < 1e-05 | < 1e-05 |  | 

Row | Variant | self-cleavage kobs at 160 uM GlcN6P (glucosamine-6-phosphate [1]) [s⁻¹] | self-cleavage kobs at 2500 uM GlcN6P (glucosamine-6-phosphate [2]) [s⁻¹] | self-cleavage kobs at 10000 uM GlcN6P (glucosamine-6-phosphate [3]) [s⁻¹] | self-cleavage kobs at 640 uM GlcN6P (glucosamine-6-phosphate [4]) [s⁻¹]
47 | G62U G63C |  |  |  | < 1e-05
48 | G13U G41U | < 1e-05 |  |  | 
49 | A12G A15U G40C | < 1e-05 |  |  | 
50 | A15C U31G C34G G35U | < 1e-05 |  |  | 
51 | G7A A36U U47A A64G C67G | < 1e-05 |  | < 1e-05 | 
52 | A14U A15C C34U | < 1e-05 |  |  | 
53 | C11U C68U C70U | < 1e-05 |  |  | 
54 | A6U C8U A14U A36G | < 1e-05 |  |  | 
55 | G7C A48U G60A U65A | < 1e-05 | < 1e-05 |  | 
56 | G7A U54A | < 1e-05 |  |  | 
57 | U31C G43A G51A | < 1e-05 |  |  | 
58 | A33G A42U G59U | < 1e-05 |  |  | 
59 | A6C C11U U57A C71U | < 1e-05 | < 1e-05 |  | 
60 | G13A G38A | < 1e-05 |  |  | 
61 | A64G C68G C70A | < 1e-05 |  |  | < 1e-05
62 | A6G C16A C70G | < 1e-05 |  |  | 
63 | A12U A15G A42C | < 1e-05 |  |  | 
64 | A12G U31G U46C G51A | < 1e-05 | < 1e-05 |  | 
65 | A6G A14G C16U G32U G35C G41C C50A C71G | < 1e-05 | < 1e-05 |  | 
66 | A6U C11A G13U | < 1e-05 |  |  | 
67 | U30A U54A C67U C68A | 3.56e-05 ± 1.7e-05 | 4.46e-05 ± 2.1e-05 |  | 
